Data: ChEMBL document CHEMBL1201862, “PubChem BioAssay data set” (2004)

test system: NCI-H322M; assay: DTP human tumour cell line panel, 48 h

Compound | GI50
CC1=CC2=C(C)C3(CC3)[C@@](C)(O)C(=O)C2=C1 | active: 0.546 µM
CN(C)c1ccc(/C=N/n2c(-c3ccccc3)nc3ccccc3c2=O)cc1 | inactive: > 100 µM
COc1ccc(/C=C/c2ccnc3ccccc23)cc1 | inactive: 14.2 µM
O=Cc1c2c(cc3c1CC1(C3)Cc3cc4c(c(C=O)c3C1)CCCC4)CCCC2 | inactive: 31.3 µM
CCOC(=O)CCC(C(=O)OCC)n1nc2ccc(Nc3c(C)[n+]([O-])c4cc(Cl)ccc4[n+]3[O-])cc2n1 (stereo not drawn) | inactive: > 100 µM
Cc1nc2ccccc2n1C(=O)c1c(F)c(F)c(F)c(F)c1F | inactive: 36.4 µM
CC(=O)OC/C=C/Cn1nc(Br)c(=O)[nH]c1=O | inactive: > 100 µM
O=C(O)CCC(=O)N1C/C(=C\c2ccccc2)C(=O)/C(=C/c2ccccc2)C1 | inactive: 8.57 µM
O=C(Nc1nc2ccc([N+](=O)[O-])cc2s1)C(=O)C(C1OC(=O)c2ccccc21)[N+](=O)[O-] (stereo not drawn) | inactive: > 100 µM
O=S(=O)(/C=C/c1ccc(Cl)cc1Cl)Cc1ccccc1CS(=O)(=O)/C=C/c1ccc(Cl)cc1Cl | inactive: > 100 µM
CCS[C@H]1NC(=O)C1[C@H](C)O[Si](C)(C)C(C)(C)C (stereo partly drawn) | inactive: > 100 µM
O=c1[nH]cc(COCC(F)(F)C(F)(F)C(F)(F)C(F)F)c(=O)[nH]1 | inactive: > 100 µM
O=C1CSC(c2c[nH]c3ccccc23)N1c1ccc(Cl)cc1Cl (stereo not drawn) | inactive: > 100 µM
CC(=O)C(CN(CC(C)C)CC(C)C)C(c1ccccc1)c1c(O)c2ccccc2oc1=O (stereo not drawn) | inactive: > 100 µM
CC1SC2=NC3=C(c4ccccc4C3=O)C(c3ccc(Br)cc3)N2C1=O (stereo not drawn) | inactive: > 100 µM
Cc1c(C(=O)C/C(=N/NC(=O)CC#N)C(N)=O)[n+]([O-])c2ccccc2[n+]1[O-] | inactive: > 100 µM
COc1cc2c(cc1O)C(=O)O[C@@H]1CC=C3CCN(C)[C@H]3[C@H]21 | inactive: > 25 µM
O=C(O)c1ccc(NC(c2ccccc2)c2ccc3cccnc3c2O)cc1 (stereo not drawn) | inactive: 6.22 µM
CCCCOCn1c(=O)[nH]c(=O)c2cc(Br)ccc21 | inactive: > 100 µM
COc1ccc2nc3cc(Cl)ccc3c(NCCCCCC(=O)NC(COc3ccc4ccc5cccnc5c4n3)COc3ccc4ccc5cccnc5c4n3)c2c1 | inactive: 19.5 µM
CSc1nc(NC2CCCC2)c2cc[nH]c2n1 | inactive: > 100 µM

Compound | GI50
C/C(=N/Nc1ccc([N+](=O)[O-])cc1[N+](=O)[O-])C(CC(C(=O)NCc1ccccc1)/C(C)=N\Nc1ccc([N+](=O)[O-])cc1[N+](=O)[O-])C(=O)NCc1ccccc1 (stereo not drawn) | inactive: 1.86 µM
CC1(C)CCN2C(=O)C34CCCC3CC21S4 (stereo not drawn) | inactive: > 100 µM
CC(C)(C)C1(O)C=C(O)C(=O)N1NC(=O)c1ccccc1Nc1ccccc1 (stereo not drawn) | inactive: 42.5 µM
CO[C@@H]1C[C@H]2[C@@H]3CC[C@H]([C@H](C)CO)[C@@]3(C)CC[C@@H]2[C@@]2(C)CC[C@H]3C[C@]312 | inactive: 90.6 µM
O=C(OCc1ccccc1)N1N=NC2C1C1CC(OCc3ccccc3)(OCc3ccccc3)C2O1 (stereo not drawn) | inactive: > 100 µM
OC1=CN=C(c2ccccc2)Oc2ccccc21 | inactive: > 100 µM
C/C=C(/C)C(=O)O[C@@H]1CCN2CC[C@H](COC(=O)/C(=C/C)CO)C12 (stereo partly drawn) | inactive: > 100 µM
O=c1[nH]nc(-c2ccc([N+](=O)[O-])cc2)[nH]1 | inactive: > 100 µM
COC(=O)/C=C/C(=O)C1C(C(=O)OC)C2(C(=O)OC)CCC1(C(=O)OC)N2 (stereo not drawn) | inactive: > 100 µM
CCN(CC)CCOc1ccc(N2Cc3cc(OC)c(OC)cc3C2=O)cc1 | inactive: > 100 µM
COC(=O)c1c(OC(C)=O)ccc2c1c1c(n2Cc2ccccc2)C(=O)c2ccccc2C1=O | inactive: 27.5 µM
Cc1ccc(Cl)c2c1NC(=O)/C2=N\Nc1ccccc1[N+](=O)[O-] | inactive: 78 µM
C/C(=N\OCC(O)CNCCSCc1ccccc1)c1ccccc1Cl (stereo not drawn) | inactive: 17.7 µM
C=CCCCC1CCCNC1=S (stereo not drawn) | inactive: > 100 µM
CC(C)(C)c1cc(OCc2nnc3sc(S)nn23)c(Cl)cc1OCc1nnc2sc(S)nn12 | inactive: 37.9 µM
CC(=O)O[C@H]1C[C@@H](OC(C)=O)[C@@](C)(O)[C@@H]2[C@@H](OC(C)=O)[C@@]3(O)[C@H](/C=C(/CCl)[C@H]4O[C@H]4[C@@H](OC(C)=O)[C@@]12C)OC(=O)[C@@H]3C | inactive: > 25 µM
Fc1ccccc1C1CC(C(c2ccccc2)c2ccccc2)=Nc2ccccc2S1 (stereo not drawn) | inactive: 12 µM
CC(=O)OCCCOCn1c(Cc2ccccc2)c(C)c(=O)[nH]c1=O | inactive: > 100 µM
CC(=O)OC(OC(C)=O)c1c2ccccc2cc2ccccc12 | inactive: 25.4 µM
CCOC(=O)c1cn2c(n1)sc1cc(F)ccc12 | inactive: > 100 µM
Cc1cc(C)nc(NS(=O)(=O)c2ccc(NNc3c4ccccc4nc4c(C(=O)Nc5ccc(S(N)(=O)=O)cc5)cccc34)cc2)n1 | inactive: 56.2 µM

Compound | GI50
CCOC(=O)N1c2ccccc2S(=O)(=O)c2ccccc21 | inactive: > 100 µM
COC(=O)c1sc(=NC(=S)N2CCCCC2)sc1C(=O)OC | inactive: > 100 µM
CC1(C)OCC([C@H]2O[C@@H](CC(=S)NCCCCCCCCCCCCNC(=S)C[C@H]3O[C@@H](C4COC(C)(C)O4)[C@H]4OC(C)(C)O[C@H]43)[C@H]3OC(C)(C)O[C@H]32)O1 (stereo partly drawn) | inactive: > 100 µM
CCN(CC)CCCNc1nc(=O)[nH]c(C)c1C(=O)Nc1ccc2c(c1)c1ccccc1n2CC | inactive: > 100 µM
Brc1ccc(C2CC(c3cccc4ccccc34)=Nc3ccccc3S2)cc1 (stereo not drawn) | inactive: > 100 µM
OCCCCCNc1c2ccccc2nc2ccccc12 | inactive: 3.07 µM
CC1=NN(c2nc(N)nc(CC#N)n2)C(C)(C)C1 | inactive: > 100 µM
CCCCCCCCCCC(C)CCCCCCC(=O)OCC(COP(=O)([O-])OCC[N+](C)(C)C)OC(=O)CCCCCCC(C)CCCCCCCCCC (stereo not drawn) | inactive: > 100 µM
CCCN1C(=O)CC(C)N(Cc2ccccc2Cl)C1=S (stereo not drawn) | inactive: 44.6 µM
Cc1nc2ccccc2[s+]c1-c1cnc(NC#N)nc1C(=O)Nc1cccc(Cl)c1 | inactive: > 100 µM
C[C@]12C/C(=C/O)C(=O)C(O)=C1CC[C@@H]1C2CC[C@@]2(C)C1CC[C@@H]2O (stereo partly drawn) | inactive: 22.2 µM
COC(=O)c1cc(C(=O)OC)cc(-c2ccc3c(c2)-c2nc4c(c(-c5ccc(OC)cc5)c2CC3)CCc2ccc(-c3cc(C(=O)OC)cc(C(=O)OC)c3)cc2-4)c1 | inactive: 16.6 µM
O=C(CCSC1=NCCCN1)c1ccc(F)cc1 | inactive: 20.1 µM
COc1ccc(CNc2nc(NCc3ccc(OC)cc3)nc(NC3CCCCC3)n2)cc1 | active: 1.03 µM
CC(=O)/C(=C/NC(=S)c1cccnc1)C(=O)Nc1ccccc1C | inactive: > 100 µM
CCN(CC)CC(=O)Nc1ccc2c(c1)C(=O)c1ccc(NC(=O)CN(CC)CC)cc1C2=O | inactive: 39.1 µM
CC1=NNC(=O)C1C1CC(c2c[nH]c3ccccc23)=NNC1=O (stereo not drawn) | inactive: > 100 µM
c1ccc(Nc2nn3c(CCCCCCCCc4nnc5sc(Nc6ccccc6)nn45)nnc3s2)cc1 | inactive: 32.1 µM
O=C(NCCOC(=O)OCCNC(=O)NC1CCCCC1)NC1CCCCC1 | inactive: > 100 µM
CC(C)(C)C1=C(Br)C(Br)(C(C)(C)C)OP1(=O)c1ccccc1 (stereo not drawn) | inactive: > 100 µM
CC[C@@]12CCC(=S)N(CCSc3ccccc3)[C@@H]1c1c(n(S(=O)(=O)c3ccc(OC)cc3)c3ccccc13)CC2 | inactive: > 100 µM

Compound | GI50
Cc1c(C(=O)CSc2nc3ccccc3[nH]2)c(=O)n(-c2ccccc2)n1C | inactive: > 100 µM
Cc1ccc2c3c1O[C@H]1c4nc5ccccc5cc4C[C@@]4(O)[C@@H](C2)N(CC2CC2)CC[C@]314 | inactive: 10.4 µM
COc1cc(/C=C/C(=O)c2c([O-])on[n+]2-c2ccccc2)ccc1O | inactive: 4 µM
COC(=O)Cn1c(=O)oc2nc(-c3ccccc3)cc(C(F)(F)F)c21 | inactive: > 100 µM
CCOC(=O)C(NC(=O)c1cccc(Cl)c1)(Nc1ccc(S(=O)(=O)Nc2cc(C)on2)cc1)C(F)(F)F (stereo not drawn) | inactive: > 100 µM
COC1OC(COC(=O)c2cc(O)c(O)c(O)c2)C(OC(=O)c2cc(O)c(O)c(O)c2)C(OC(=O)c2cc(O)c(O)c(O)c2)C1OC(=O)c1cc(O)c(O)c(O)c1 (stereo not drawn) | inactive: 47.1 µM
COC(O)C(=O)c1ccc2c(c1)CC1(C2)Cc2cc3c(cc2C1=O)CCC3 (stereo not drawn) | inactive: 19.9 µM
COC(=O)C1=C(C(=O)OC)SC(=C(/N=N/c2ccccc2)c2ccccc2)S1 | inactive: > 100 µM
COc1cc(CCC(=O)O)c2cc3ccccc3cc2c1O | inactive: 61.2 µM
CC(C)Cc1ccc(C(C)/C=C2\CCC(CN3CCCC3)C2=O)cc1 (stereo not drawn) | inactive: 22.8 µM
CCOC(=O)/C=C/[C@H](O)[C@@H](O)/C=C/C(=O)OCC | inactive: 33.5 µM
Nc1nc(Cl)cc(OCC2(CO)CC=CC2)n1 | inactive: > 100 µM
CCOc1ccc(/N=N/C2C(=O)N(C(=O)CC(=O)Nc3ccccc3)N=C2C)cc1 (stereo not drawn) | inactive: 33.1 µM
CSC1=N/C(=C\c2ccc(C)cc2)C(=O)N1CN1CCCCC1 | inactive: > 100 µM
CCNC(=O)Nc1cccc(NC(=O)NCC)n1 | inactive: > 100 µM
CCCNC(=S)N/C=C1/C(=O)Oc2ccccc2C1=O | inactive: > 100 µM
S=C(S)N1CCN(c2cccc(Cl)c2)CC1 | inactive: > 100 µM
C=C1C[C@@H]2CC[C@@]34CC5O[C@H]6C(O[C@H]7CC[C@H](CC(=O)O[C@@H]8[C@@H](C)[C@@H]9O[C@@H]%10C[C@]%11(C[C@@H]%12O[C@]%13(C[C@H](C)[C@@H]%14O[C@@H]%15CC(C(O)CO)O[C@@H]%15C[C@@H]%14O%13)C[C@H](C)[C@@H]%12O%11)O[C@@H]%10C[C@@H]9O[C@H]8CC8O[C@@H](CC[C@@H]1O2)C[C@@H](C)C8(O)CO)O[C@@H]7[C@@H]6O3)[C@H]5O4 (stereo partly drawn) | active: > 0.662 µM
COC(=O)C1[C@H](C(=O)OC)C1(Br)CBr (stereo partly drawn) | inactive: > 100 µM
O=c1ccn([C@@H]2O[C@H](CO)[C@@H](O)[C@H]2F)c(=O)[nH]1 | inactive: > 100 µM

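Protocol summary: plate cells (96-well), add compound at 5 concentrations, incubate 48 h, interpolate endpoints linearly. Here, GI50 denotes the concentration required for 50% inhibition of growth.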 Active and inactive are the calls of the source. Cut-off read from the data, not from the text of the source: active = GI50 up to about 1.1 µM and inactive = higher.
